Test results taken from patent US6130250A, “Veterinary use of a pleuromutilin derivative” (priority 1996, dated 2000).

Tests used:
[1] = system: Serpulina hyodysenteriae; experiment: MIC determination on agar, 10 S. hyodysenteriae strains; format: cell-based
[2] = system: S. hyodysenteriae; experiment: MIC determination by agar dilution, 10 strains from porcine faeces; format: cell-based, Serpulina hyodysenteriae; settings: Brachyspira hyodysenteriae
Procedure: Minimum inhibitory concentrations (MICs) are determined against 10 strains of S. hyodysenteriae isolated from porcine faeces, by the agar dilution method. NCTC (National Collection of Type Cultures) strains or reference strains are used as controls in all MIC tests. The agar medium for S. hyodysenteriae consists of BAB2 (Unipath CM271) containing 7% whole defibrinated sterile sheep blood. All antimicrobial agents are tested in doubling dilutions. Prepared antibiotic dilutions are added to an appropriate volume of MH agar, previously cooled to 50° C., mixed and 20 ml volumes poured. All S. hyodysenteriae incubations are performed in an anaerobic work station at 37° C. (+/-0.5° C.) (Don Whitley Scientific) which provides a strict anaerobic atmosphere comprising 80% nitrogen, 10% hydrogen and 10% carbon dioxide. All other incubations are performed at 37° C. All strains are incubated in an […] atmosphere at 37° C. for 24 hours. The numbers of the organisms are adjusted to an optical density (OD) equivalent to 1×10^8 colony forming units (cfu) per ml, using MH broth as a blank. The antibiotic containing plates are inoculated in duplicate using a multipoint inoculator (Denley Instruments) which delivers a plate inoculum of approximately 1 μl giving an inoculum of 10^4 -10^5 cfu per spot for all strains (Amon, J. Antimicrob. Chemother. 21 [1988] 701-710; Ericsson et al., Acta Pathol. Microbiol. et Immunol. Scand. 217 [1971] (B) Suppl., 1-90). Control plates are incubated under the same conditions as the test plates. The MICs are read after 24 and 48 hours, the latter being the definitive reading. The MIC is defined as the lowest concentration of antibiotic on which there is no growth, disregarding a single colony or a faint haze caused by the inoculum (National Committee for Clinical Laboratory Standards [1989], Antimicrobial Susceptibility Testing, NCCLC Publications SC3, Villanova, Pa., USA).

[3] = system: mycoplasma isolates of chicken origin; experiment: MIC, serial microdilution, mycoplasma isolates of chicken origin; format: cell-based
Procedure: (§1) The antimicrobial effect of vainemulin hydrochloride is determined by means of a standard serial microdilution technique in comparison to tylosin (Tylan soluble) and tiamulin hydrogen fumarate.
(§2) 12.8 mg of the test compound are dissolved in 100 ml of distilled water to obtain a stock solution which is stored at -20° C. until used. Mycoplasma gallisepticum reference strain used are X95, S6 Holland, S6 Bench (England), MS-16 (Japan), MK-7 (Japan) and 1226, and various fresh field isolates.
(§3) The antibiotic-sensitivity of the strains is examined using a modified microbroth dilution procedure (Stipkovits et al., Vet. Microbiol. 15 [1987] 65-70). Testing medium is added (100 μl) to all the wells of microtitration plates, using doubling dilutions of antibiotics. The inoculum (100 μl) contains 10^5 cfu/ml. The plates are sealed with sellotape and incubated at 37° C. over a period of 3 days. The lowest concentration of the antibiotic completely preventing colour change of the media at the third day reading is the minimal inhibitory concentration (MIC). The wells without colour range are checked for viability of mycoplasmas by plating them on agar medium. All Mycoplasma strains are propagated in 10 ml of medium B (Ern.o slashed., H. and Stipkovits, L., Acta Vet. Scand. 14 [1973] 436-449). After incubation at 37° C. until early log phase of growth, 1 ml aliquots of culture are dispensed in tubes as seed cultures and stored at -20° C. The glucose fermenting Mycoplasma strains are tested in modified medium Bg supplemented with 1% glucose (pH 7.8), the arginine hydrolysing strains in medium Ba (Ern.o slashed., H. and Stipkovits, L., supra, 450-463) containing 1% arginine (pH 7.3) and the glucose- and arginine-negative strains in medium B including 1% triphenyltetrazolium chloride.
(§4) The average MIC values for different strain groups and antibiotics taking into consideration dilutions are calculated.

[4] = system: Mycoplasma gallisepticum; experiment: Challenge study, treatment of Mycoplasma gallisepticum infection; format: in vivo, male broiler chicks
From the text: Groups of male broiler chicks are infected with a virulent strain of Mycoplasma gallisepticum (MG) and each group medicated respectively with valnemulin at a concentration of 0.0125%, 0.025%, 0.05%, tiamulin at the same concentration, tylosin 0.05% and a […], spectinomycin combination (Linco-Spectin) 0.083%. There is also one infected group left untreated and an uninfected group. The chicks are infected at two days of age by the injection of 3.4×10^5 organisms into each lung. Medication in the drinking water is commenced 24 hours later for three successive days except for Linco-Spectin with which treatment was continued for 5 days.

[5] = system: Mycoplasma gallisepticum; experiment: MIC, serial microdilution, Mycoplasma gallisepticum reference strains; format: cell-based
Procedure: as §1, §2, §3, §4

[6] = system: Mycoplasma gallisepticum; experiment: Challenge study, prevention of Mycoplasma gallisepticum infection; format: in vivo, male broiler chickens; settings: tylosin 0.05%
Procedure: Groups of male broiler chickens are infected with a virulent strain of Mycoplasma gallisepticum (MG) and each group medicated respectively with one of the following: valnemulin (concentrations of 0.00312, 0.00625, 0.0125 and 0.025%), tiamulin (0.00625, 0.0125 and 0.025%), and tylosin (0.05%). Infection is effected on day 2 by injection of 0.1 ml of Mycoplasma gallisepticum culture containing approximately 10^6 cfu of viable organisms into each lung (Jordan, F. T. W., The Veterinary Record 127 [1990] 502) and medication is commenced within an hour of infection and continued for three consecutive days. There is also an infected untreated group and an uninfected group.

CCC[C@@H]1C[C@@H](C(=O)N[C@@H]([C@H]2O[C@H](SC)[C@H](O)[C@@H](O)[C@H]2O)[C@@H](C)O)N(C)C1 [lincomycin hydrochloride]
number of strains with MIC 64 μg/ml [1]: 1 | number of strains with MIC 128 μg/ml [1]: 3 | number of strains with MIC >128 μg/ml [1]: 6 | MIC [2]: 50 µg/mL

Cc1ncc([N+](=O)[O-])n1C [dimetridazole]
number of strains with MIC 0.500 μg/ml [1]: 2 | number of strains with MIC 1 μg/ml [1]: 2 | number of strains with MIC 2 μg/ml [1]: 1 | number of strains with MIC 8 μg/ml [1]: 1 | number of strains with MIC 16 μg/ml [1]: 1 | number of strains with MIC 64 μg/ml [1]: 3 | MIC [2]: 30 µg/mL (≈ 213 µM)

CC[C@H]1OC(=O)C[C@@H](O)[C@H](C)[C@@H](O[C@@H]2O[C@H](C)[C@@H](O[C@H]3C[C@@](C)(O)[C@@H](O)[C@H](C)O3)[C@H](N(C)C)[C@H]2O)[C@@H](CC=O)C[C@@H](C)C(=O)/C=C/C(C)=C/[C@@H]1CO[C@@H]1O[C@H](C)[C@@H](O)[C@@H](OC)[C@H]1OC [tylosin]
number of strains with MIC 128 μg/ml [1]: 1 | number of strains with MIC >128 μg/ml [1]: 9 | MIC ([3]; isolate 20002, read-out: MIC): 0.25 µg/mL (≈ 0.273 µM) | MIC ([3]; isolate 20006, read-out: MIC): 0.25 µg/mL (≈ 0.273 µM) | MIC ([3]; isolate 20174, read-out: MIC): 0.25 µg/mL (≈ 0.273 µM) | MIC ([3]; isolate 20175, read-out: MIC): 2 µg/mL (≈ 2.18 µM) | MIC ([3]; isolate 20176, read-out: MIC): 2 µg/mL (≈ 2.18 µM) | MIC ([3]; isolate 20177, read-out: MIC): 1 µg/mL (≈ 1.09 µM) | MIC ([3]; isolate 20178, read-out: MIC): 2 µg/mL (≈ 2.18 µM) | MIC ([3]; isolate 20224, read-out: MIC): 4 µg/mL (≈ 4.37 µM) | MIC ([3]; isolate 20312, read-out: MIC): 4 µg/mL (≈ 4.37 µM) | MIC ([3]; isolate 20321, read-out: MIC): 0.5 µg/mL (≈ 0.546 µM) | MIC ([3]; isolate 20472, read-out: MIC): 16 µg/mL (≈ 17.5 µM) | MIC ([3]; isolate 20473, read-out: MIC): 32 µg/mL (≈ 34.9 µM) | MIC ([3]; isolate 20474, read-out: MIC): 16 µg/mL (≈ 17.5 µM) | MIC ([3]; isolate 20475, read-out: MIC): 32 µg/mL (≈ 34.9 µM) | MIC ([3]; read-out: MIC range (sensitivity), avian field isolates): 0.06 to 32 µg/mL (≈ 0.0655 to 34.9 µM) | lesions ([4]; tiamulin and tylosin): only a few | recovery of Mycoplasma at 23 days ([4]; valnemulin 3 groups, tylosin 0.05%): not recovered | MIC [2]: 200 µg/mL (≈ 218 µM) | MIC ([5]; Mycoplasmoides gallisepticum): 0.0312 µg/mL (≈ 0.0341 µM) | MIC ([5]; strain 1226): 0.0312 µg/mL (≈ 0.0341 µM) | MIC ([5]; strain Holland): 0.0312 µg/mL (≈ 0.0341 µM) | MIC ([5]; strain MK-7): 0.0312 µg/mL (≈ 0.0341 µM) | MIC ([5]; strain MS-16): 0.0312 µg/mL (≈ 0.0341 µM) | serological results [6]: relatively high proportion of positive reactors | prevention of clinical signs and mortality ([6]; valnemulin 0.0125 and 0.025%, tiamulin three doses): equally satisfactory | lesions (frequency and severity) ([6]; valnemulin 0.0125 and 0.025%, tiamulin): fewer chicks and were less severe

Converted amounts (≈) assume the structure as drawn. Structures can show the parent of a compound that is named as a salt. Where two headings read alike, the source gives them in different places.
